The IC50 comes from the fitted curve, where viability falls to half of the control; fits outside the tested doses are given as limits. For AUC the same curve is integrated over the 256-fold range of doses and scaled to a fraction; the more sensitive the line, the further below 1. For part of these data: The top dose, if marked as inferred, was calculated from the reported fits. For part of these data: Drugs with an entry number were screened twice under separate entries, and the two screens often disagree.
Tests used:
Assay in all cases: Viability of human cancer cell lines after 72 h of drug (GDSC screen)
YM155 = compound: COCC[n+]1c2c(n(Cc3cnccn3)c1C)C(=O)c1ccccc1C2=O [YM155]; settings: top dose 5.12 µM
Experimental: (§1)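 Human cancer cell lines in 384-well plates, medium with 10% serum, drug for 72 h over a 256-fold dose range (nine 2-fold or five 4-fold steps up to the top dose). Adherent lines were fixed and stained with the nucleic acid dye Syto60, suspension lines read with resazurin; signal relative to control wells, capped at 0 and 100%. One two-parameter sigmoid per drug and line, fitted in a mixed model over all curves with the slope shared within a line.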

Docetaxel = compound: CC(=O)O[C@@]12CO[C@@H]1C[C@H](O)[C@@]1(C)C(=O)[C@H](O)C3=C(C)[C@@H](OC(=O)[C@H](O)[C@@H](NC(=O)OC(C)(C)C)c4ccccc4)C[C@@](O)([C@@H](OC(=O)c4ccccc4)[C@H]21)C3(C)C [Docetaxel]; settings: top dose 0.0125 µM
Experimental: as §1

JNJ-26854165 = compound: c1ccc2c(CCNc3ccc(Nc4ccncc4)cc3)c[nH]c2c1 [JNJ-26854165]; settings: top dose 10 µM
Experimental: as §1

CGP-60474 = compound: OCCCNc1cc(-c2ccnc(Nc3cccc(Cl)c3)n2)ccn1 [CGP-60474]; settings: top dose 0.256 µM; top dose inferred
Experimental: as §1

AMG-706 = compound: CC1(C)CNc2cc(NC(=O)c3cccnc3NCc3ccncc3)ccc21 [AMG-706]; settings: top dose 2 µM; top dose inferred
Experimental: as §1

JQ1 = compound: Cc1sc2c(c1C)C(c1ccc(Cl)cc1)=N[C@@H](CC(=O)OC(C)(C)C)c1nnc(C)n1-2 [JQ1]
Experimental: as §1

Belinostat = compound: O=C(/C=C/c1cccc(S(=O)(=O)Nc2ccccc2)c1)NO [Belinostat]; settings: top dose 20 µM; top dose inferred
Experimental: as §1

Cyclopamine = compound: CC1=C2C[C@H]3[C@@H](CC=C4C[C@@H](O)CC[C@@]43C)[C@@H]2CC[C@]12O[C@@H]1C[C@H](C)CN[C@H]1[C@H]2C [Cyclopamine]; settings: top dose 16 µM; top dose inferred
Experimental: as §1

JNK Inhibitor VIII = compound: CCOc1nc(NC(=O)Cc2cc(OC)ccc2OC)cc(N)c1C#N [JNK Inhibitor VIII]; settings: top dose 10 µM; top dose inferred
Experimental: as §1

FTI-277 = compound: COC(=O)[C@H](CCSC)NC(=O)c1ccc(NC[C@@H](N)CS)cc1-c1ccccc1 [FTI-277]; settings: top dose 1.024 µM; top dose inferred
Experimental: as §1

SB-715992 = compound: Cc1ccc(C(=O)N(CCCN)[C@@H](c2nc3cc(Cl)ccc3c(=O)n2Cc2ccccc2)C(C)C)cc1 [SB-715992]; settings: top dose 0.128 µM; top dose inferred
Experimental: as §1

OSI-906 = compound: C[C@]1(O)C[C@@H](c2nc(-c3ccc4ccc(-c5ccccc5)nc4c3)c3c(N)nccn32)C1 [OSI-906]; settings: top dose 2.56 µM; top dose inferred
Experimental: as §1

NSC-207895 = compound: CN1CCN(c2ccc([N+](=O)[O-])c3no[n+]([O-])c23)CC1 [NSC-207895]; settings: top dose 20 µM; top dose inferred
Experimental: as §1

[1] = top dose 1 µM, screen: GDSC drug entry 1218, top dose inferred
[2] = top dose 2.56 µM, screen: GDSC drug entry 163

Row | Cell Line | AUC (YM155) | IC50 (YM155) | AUC (Docetaxel) | IC50 (Docetaxel) | AUC (JNJ-26854165) | IC50 (JNJ-26854165) | AUC (CGP-60474) | IC50 (CGP-60474) | AUC (AMG-706) | IC50 (AMG-706) | AUC (JQ1; [1]) | IC50 (JQ1; [1]) | AUC (JQ1; [2]) | IC50 (JQ1; [2]) | AUC (Belinostat) | IC50 (Belinostat) | AUC (Cyclopamine) | IC50 (Cyclopamine) | AUC (JNK Inhibitor VIII) | IC50 (JNK Inhibitor VIII) | AUC (FTI-277) | IC50 (FTI-277) | AUC (SB-715992) | IC50 (SB-715992) | AUC (OSI-906) | IC50 (OSI-906) | AUC (NSC-207895) | IC50 (NSC-207895)
1 | ARH-77 (myeloma, suspension) | 0.031 | < 20 nM | 0.987 | > 12.5 nM | 0.974 | > 10000 nM | 0.747 | 79.4 nM | 0.972 | > 2000 nM | 0.769 | 363 nM | 0.711 | 616 nM | 0.262 | 269 nM | 0.893 | > 16000 nM | 0.987 | > 10000 nM | 0.978 | > 1020 nM | 0.773 | 47.9 nM | 0.986 | > 2560 nM | 0.939 | > 20000 nM
2 | ATN-1 (T-cell lymphoblastic leukaemia, suspension) | 0.023 | < 20 nM | 0.613 | 1.56 nM | 0.689 | 2040 nM | 0.662 | 43.8 nM | 0.988 | > 2000 nM | 0.984 | > 1000 nM | 0.945 | > 2560 nM | 0.198 | 172 nM | 0.935 | > 16000 nM | 0.982 | > 10000 nM | 0.988 | > 1020 nM | 0.474 | 6.81 nM | 0.944 | > 2560 nM | 0.953 | > 20000 nM
3 | BE2-M17 (neuroblastoma, adherent) | 0.234 | 52.9 nM | 0.725 | 3.48 nM | 0.919 | > 10000 nM | 0.824 | 159 nM | 0.983 | > 2000 nM | 0.734 | 296 nM | 0.777 | 1060 nM | 0.496 | 1220 nM | 0.987 | > 16000 nM | 0.985 | > 10000 nM | 0.983 | > 1020 nM | 0.834 | 86.4 nM | 0.699 | 591 nM | 0.906 | > 20000 nM
4 | BL-41 (Burkitt lymphoma, suspension) | 0.01 | < 20 nM | 0.673 | 2.08 nM | 0.887 | 6610 nM | 0.533 | 19.2 nM | 0.992 | > 2000 nM | 0.983 | > 1000 nM | 0.578 | 248 nM | 0.127 | 132 nM | 0.911 | 13100 nM | 0.994 | > 10000 nM | 0.992 | > 1020 nM | 0.628 | 16.5 nM | 0.992 | > 2560 nM | 0.802 | 7240 nM
5 | BT-474 (breast, adherent) | 0.237 | 49.9 nM | 0.902 | > 12.5 nM | 0.916 | > 10000 nM | 0.976 | > 256 nM | 0.986 | > 2000 nM | 0.984 | > 1000 nM | 0.944 | > 2560 nM | 0.651 | 3470 nM | 0.983 | > 16000 nM | 0.985 | > 10000 nM | 0.982 | > 1020 nM | 0.939 | > 128 nM | 0.986 | > 2560 nM | 0.975 | > 20000 nM
6 | BV-173 (chronic myeloid leukaemia, suspension) | 0.021 | < 20 nM | 0.637 | 1.78 nM | 0.711 | 2260 nM | 0.726 | 64 nM | 0.976 | > 2000 nM | 0.735 | 265 nM | 0.916 | > 2560 nM | 0.269 | 303 nM | 0.945 | > 16000 nM | 0.975 | > 10000 nM | 0.983 | > 1020 nM | 0.557 | 11.2 nM | 0.968 | > 2560 nM | 0.605 | 2340 nM
7 | CAS-1 (glioma, adherent) | 0.06 | < 20 nM | 0.832 | 12.4 nM | 0.812 | 8000 nM | 0.937 | > 256 nM | 0.978 | > 2000 nM | 0.972 | > 1000 nM | 0.626 | 404 nM | 0.563 | 1980 nM | 0.963 | > 16000 nM | 0.958 | > 10000 nM | 0.96 | > 1020 nM | 0.936 | > 128 nM | 0.906 | > 2560 nM | 0.979 | > 20000 nM
8 | CCRF-CEM (lymphoblastic leukaemia, suspension) | 0.055 | < 20 nM | 0.776 | 4.19 nM | 0.752 | 2850 nM | 0.684 | 47.5 nM | 0.977 | > 2000 nM | 0.871 | 695 nM | 0.601 | 288 nM | 0.142 | 126 nM | 0.987 | > 16000 nM | 0.977 | > 10000 nM | 0.988 | > 1020 nM | 0.66 | 20.5 nM | 0.976 | > 2560 nM | 0.873 | 14200 nM
9 | CESS (acute myeloid leukaemia, suspension) | 0.061 | < 20 nM | 0.973 | > 12.5 nM | 0.928 | > 10000 nM | 0.648 | 38.4 nM | 0.991 | > 2000 nM | 0.904 | 999 nM | 0.601 | 290 nM | 0.171 | 155 nM | 0.953 | > 16000 nM | 0.99 | > 10000 nM | 0.969 | > 1020 nM | 0.637 | 18 nM | 0.945 | > 2560 nM | 0.833 | 10400 nM
